{"source": "the RNAGym collection of RNA variant scans (doi:10.7554/elife.90254)", "parents": {"B1": {"name": "LINE1-mini (parent)", "chain": "GGCAGAGCUCAACACAGCGUGGCAAAGUGGCUGUGGCUAGACUGCC"}}, "note": "The source gives no read counts; variants with many changes may rest on few reads."}
{"variants_of": "B1", "test": "self-cleavage, relative activity (ratio to wild type); higher = more cleavage; in vitro, sequencing; the parent is a self-cleaving ribozyme"}
{"variant": "U9A G35C U43G", "self-cleavage": 0.03}
{"variant": "G2C A16G A24G C37A C46G", "self-cleavage": 0.61}
{"variant": "A11C C31A G33A", "self-cleavage": 0}
{"variant": "A11U U28A C42U", "self-cleavage": 0.05}
{"variant": "U9A G17U A26U", "self-cleavage": 0.01}
{"variant": "C10G G19C U28A C42A", "self-cleavage": 0.01}
{"variant": "G1C A14G U28A", "self-cleavage": 0.02}
{"variant": "A4C A12U U20C G30U G40U", "self-cleavage": 0.08}
{"variant": "G1C U28G A41U", "self-cleavage": 0.24}
{"variant": "A11U A12C C15A", "self-cleavage": 0.03}
{"variant": "A26G U28A U34G", "self-cleavage": 0.04}
{"variant": "G21U A24U G30A", "self-cleavage": 1.55}
{"variant": "C3G C8U G19C U20C G21A U28C G33A", "self-cleavage": 0.02}
{"variant": "U9G C23A A39G", "self-cleavage": 0.07}
{"variant": "A6C C13G U20A G22A G27U C31A", "self-cleavage": 0.07}
{"variant": "A4G C10U U32G G40A C42A", "self-cleavage": 0.07}
{"variant": "G5C C42U U43A", "self-cleavage": 0.08}
{"variant": "A4C U9C A24U C42U", "self-cleavage": 0.08}
{"variant": "A16C A26C A41C", "self-cleavage": 0.01}
{"variant": "A4U G5C C8A A11C A14C", "self-cleavage": 0.02}
{"variant": "G1C G2A G21U U28C G35A G36C A39U U43G", "self-cleavage": 0}
{"variant": "A12G C23A U32A", "self-cleavage": 0.03}
{"variant": "G1C G2A U9C C10U G27U", "self-cleavage": 0.02}
{"variant": "U9G G21A C23A", "self-cleavage": 0.01}
{"variant": "C13U G19A U20G A24U", "self-cleavage": 0.09}
{"variant": "G19U G22A G44A", "self-cleavage": 0.22}
{"variant": "G22U G29C U32C G33U A39G", "self-cleavage": 0.04}
{"variant": "A4U A12C C13U C15A", "self-cleavage": 0.02}
{"variant": "A4U A16C A24U", "self-cleavage": 0.04}
{"variant": "C3U G5C A12U", "self-cleavage": 0.14}
{"variant": "A4C G21A G22A A24G A26U G40A U43G", "self-cleavage": 0.02}
{"variant": "G2U A16U G21U C42U", "self-cleavage": 0.03}
{"variant": "A12U G22C C23G", "self-cleavage": 0.06}
{"variant": "C3U A25G U43C G44A", "self-cleavage": 0.13}
{"variant": "A6C A14C C15U", "self-cleavage": 0.13}
{"variant": "G5A G17C G40U", "self-cleavage": 0}
{"variant": "C15G G29U A41G", "self-cleavage": 0.01}
{"variant": "A16C C18A G36U U38G U43G G44A", "self-cleavage": 0.01}
{"variant": "G19U G22C U34C A41U", "self-cleavage": 0.05}
{"variant": "G1A A4G C13A U34C G35C", "self-cleavage": 0.04}
{"variant": "G2C A4G U9A C15U C31U", "self-cleavage": 0.06}
{"variant": "G1C A6G C13G C18A U28A G30C G33U", "self-cleavage": 0.01}
{"variant": "G33A G36U A41U C45G", "self-cleavage": 0.03}
{"variant": "A12U A16C G19A U28A U38C", "self-cleavage": 0.02}
{"variant": "C23A G36C C37A", "self-cleavage": 0.09}
{"variant": "U9G A25G G30C G35A A39C", "self-cleavage": 0.02}
{"variant": "A12C G27U C46A", "self-cleavage": 0.03}
{"variant": "G2C C8G G33A", "self-cleavage": 0.06}
{"variant": "U32G G33U A41C", "self-cleavage": 0.01}
{"variant": "G5A C10G C13U C15U A24G G35C G36A", "self-cleavage": 0.01}
{"variant": "G5A G7A G22A G27A", "self-cleavage": 0.27}
{"variant": "C23A A24C C31U", "self-cleavage": 0.29}
{"variant": "G2A A14U G19A A25G", "self-cleavage": 0.07}
{"variant": "C8A U9G G33U", "self-cleavage": 0.12}
{"variant": "A12C C15A G29A G35A", "self-cleavage": 0.03}
{"variant": "G7U C13U G17A C23U", "self-cleavage": 0.09}
{"variant": "G2U C8U G17A G44A", "self-cleavage": 0.12}
{"variant": "C13U U20A G36C", "self-cleavage": 0.07}
{"variant": "G2C G35U C42U", "self-cleavage": 0.69}
{"variant": "G29U C42A G44C C46G", "self-cleavage": 0.14}
{"variant": "G2A A12C C15A G17A A24G G27U C31G", "self-cleavage": 0.01}
{"variant": "G2A U9G C31U U43G C45U", "self-cleavage": 0.02}
{"variant": "C8U G17A G27U G36C C42U", "self-cleavage": 0.08}
{"variant": "G7U C8A A39U", "self-cleavage": 0.07}
{"variant": "G2A C10A A39C", "self-cleavage": 0.06}
{"variant": "U28C G33U G40C", "self-cleavage": 0.01}
{"variant": "G21C C31A C42U", "self-cleavage": 0.06}
{"variant": "G1A C3G A11G A16U A25U C31G", "self-cleavage": 0.03}
{"variant": "A12C G29U A39G", "self-cleavage": 0}
{"variant": "C3A U28G G35U G44U", "self-cleavage": 0.1}
{"variant": "G17C A25C G40C", "self-cleavage": 0.05}
{"variant": "C8A G27U G29C C31U", "self-cleavage": 0.09}
{"variant": "C8U G21A A24G U28A C42A", "self-cleavage": 0.7}
{"variant": "C3A C13A C15U C42G", "self-cleavage": 0.98}
{"variant": "G1C G2C U34G", "self-cleavage": 0.03}
{"variant": "A14G G29A G36U", "self-cleavage": 0.04}
{"variant": "A4C A14U G27U G44C", "self-cleavage": 0.03}
{"variant": "G2A G27U G44U", "self-cleavage": 0.33}
{"variant": "A16G G19A C45U", "self-cleavage": 0.17}
{"variant": "C23U G30A U34C", "self-cleavage": 0.16}
{"variant": "G17C A24G G33C", "self-cleavage": 0.06}
{"variant": "U34G G36U C46U", "self-cleavage": 0.07}
{"variant": "G1A A4C G27U G36U", "self-cleavage": 0.12}
{"variant": "G1C A4U C15U", "self-cleavage": 0.01}
{"variant": "G7C A14G G35U G40U", "self-cleavage": 0.11}
{"variant": "A12U A14U U34G", "self-cleavage": 0.13}
{"variant": "C10A A11C A24C C42U G44A", "self-cleavage": 0.01}
{"variant": "A4U G7C C13G U28A U32C", "self-cleavage": 0.07}
{"variant": "G2A G7A U9C A24C C45G", "self-cleavage": 0.05}
{"variant": "C8U G21A G30U G44U", "self-cleavage": 0.14}
{"variant": "A6G G7A G44C", "self-cleavage": 0.1}
{"variant": "C13G G22C G33A C46A", "self-cleavage": 0.02}
{"variant": "G5U G7A C18A", "self-cleavage": 0.04}
{"variant": "C13U C23A G29C A41C C45U", "self-cleavage": 0.02}
{"variant": "G1U A6U G22U G36U G40A C45U", "self-cleavage": 0.06}
{"variant": "G2A G7C U20G C37A", "self-cleavage": 0.02}
{"variant": "C3U C10G C15G G30U G35U", "self-cleavage": 0.02}
{"variant": "C8G C10G C45A", "self-cleavage": 0.02}
{"variant": "C8U C15U U20C C45A", "self-cleavage": 0.45}
{"variant": "A11C C13A C45G", "self-cleavage": 0.03}
{"variant": "C15U G29C C37A", "self-cleavage": 0.11}
{"variant": "G7U G19U G29A G44U", "self-cleavage": 0.21}
{"variant": "A39U G40C G44U", "self-cleavage": 0.04}
{"variant": "A6G G27A U32A G33A C46A", "self-cleavage": 0.07}
{"variant": "G1A C3A G22U A25C G33U", "self-cleavage": 1.14}
{"variant": "C8A C10G G30C G44A", "self-cleavage": 0.02}
{"variant": "C31A G35C G40A", "self-cleavage": 0.01}
{"variant": "G2U A6G G40U", "self-cleavage": 0.02}
{"variant": "C3G G29U G36U C37U", "self-cleavage": 0.03}
{"variant": "A6G C15G C18G C46G", "self-cleavage": 0.03}
{"variant": "A6G C15A C18A A26U", "self-cleavage": 0.04}
{"variant": "A14C A24G C45G", "self-cleavage": 0.14}
{"variant": "G5U G21A G33A U38G", "self-cleavage": 0.02}
{"variant": "A4C C8A C10G C31U", "self-cleavage": 0.03}
{"variant": "A26C C31U C42A U43G G44U", "self-cleavage": 0.07}
{"variant": "G5A G29U C31A G35U", "self-cleavage": 0.05}
{"variant": "C10A G29C G30A", "self-cleavage": 0.05}
{"variant": "G1U C8A A12G G30U C31G U34G", "self-cleavage": 0.08}
{"variant": "C3G A6U G7U C18G C23U", "self-cleavage": 0.13}
{"variant": "A11G A16U A24U", "self-cleavage": 0}
{"variant": "G2A A4C C15U G21A", "self-cleavage": 0.25}
{"variant": "C3G G7C C23A C45G", "self-cleavage": 0.01}
{"variant": "U9C G19U U34A", "self-cleavage": 0.03}
{"variant": "C3G A4G A14G C15G G36A", "self-cleavage": 0.09}
{"variant": "C8G C10A C46G", "self-cleavage": 0.04}
{"variant": "G21A A39U G44U", "self-cleavage": 0.61}
{"variant": "G2C G29A C37G", "self-cleavage": 0.02}
{"variant": "A4C G5A C15U", "self-cleavage": 0.05}
{"variant": "G1C C10A C15U G22A G40A A41G", "self-cleavage": 0.01}
{"variant": "C10A G30U G40A", "self-cleavage": 0.04}
{"variant": "C10A G21U C45U", "self-cleavage": 0.05}
{"variant": "C8A C13G C42U", "self-cleavage": 0.26}
{"variant": "A6G G7U U9C U38G", "self-cleavage": 0.02}
{"variant": "G5A C8U C15A C18G G19U", "self-cleavage": 0.1}
{"variant": "G22A A25C G30U", "self-cleavage": 0.63}
{"variant": "G5U G22A G33U", "self-cleavage": 0.03}
{"variant": "A11C A14C U34C C45U", "self-cleavage": 0.02}
{"variant": "G17U A26U G29A C42A", "self-cleavage": 0.05}
{"variant": "G7C A12C C23A", "self-cleavage": 0.03}
{"variant": "G1U C15A G19A G33C U38G C45A", "self-cleavage": 0.02}
{"variant": "U20A U32G U34G C37G", "self-cleavage": 0.02}
{"variant": "A12G C37A A41C", "self-cleavage": 0.01}
{"variant": "A14G G35A A41C", "self-cleavage": 0.01}
{"variant": "G19U G21C G22A G40U C45G", "self-cleavage": 0.05}
{"variant": "A16G A25U C42A", "self-cleavage": 0.02}
{"variant": "A6U C8G G17A G35U", "self-cleavage": 0.02}
{"variant": "C13A C18U U43G C45U", "self-cleavage": 0.27}
{"variant": "U32C G33U G44A", "self-cleavage": 0.1}
{"variant": "C13G A25C U43A", "self-cleavage": 0.08}
{"variant": "G5A A6U U28A C37A U38C", "self-cleavage": 0.01}
{"variant": "A4G G7C C18A G35A", "self-cleavage": 0.24}
{"variant": "A12U G22U A25G", "self-cleavage": 0.07}
{"variant": "G2U A6C G30A", "self-cleavage": 0.51}
{"variant": "A26C G30A C37G", "self-cleavage": 0.01}
{"variant": "G17U U20A U43A C45A", "self-cleavage": 0.02}
{"variant": "A12C C15A G22A U28G C42G", "self-cleavage": 0.04}
{"variant": "C18A G21U C37G U38C", "self-cleavage": 0.04}
{"variant": "C3A A6C C13A A16U G19A", "self-cleavage": 0.46}
{"variant": "G5A G22A G33U", "self-cleavage": 0.05}
{"variant": "A25U A26C C31U G33U A41U", "self-cleavage": 0.05}
{"variant": "A11C C15A C18U G22C", "self-cleavage": 0}
{"variant": "G17A U20A C23U G30U U32C", "self-cleavage": 0.08}
{"variant": "A16C C31G U32C", "self-cleavage": 0.05}
{"variant": "C8U C23U G27A U32C", "self-cleavage": 0.15}
{"variant": "G5U A12C C13U G17U C42U U43C", "self-cleavage": 0.01}
{"variant": "A4C G19U C23A A25C", "self-cleavage": 0.06}
{"variant": "C8U C18G G30U G33U U34C G35U G40A C46U", "self-cleavage": 0.01}
